Test results as given in PubChem BioAssay AID624417 (National Center for Advancing Translational Sciences (NCATS), 2012).
Out of some 410,000 compounds screened, about 6,400 (1.6%) were called active. The shares of active, inactive and inconclusive entries below differ from those in the screen. Calls follow the shape of the dose curve; as a rule, active = well fitted inhibition curve with a large enough effect; inconclusive = small, poorly fitted or top-dose-only effect; inactive = no such curve, though single readings can be large or run the other way. No potency is given beside an inconclusive call; the fits are too rough.

The compounds below were run against Glucagon-like peptide 1 receptor (Homo sapiens) (UniProt P43220) (assay: qHTS of GLP-1 Receptor Inverse Agonists (Inhibition Mode)). Conditions: HEK293 GLP-1R CRE-luciferase, luminescence, 24 h, GLP-1R form is constitutively active; activity change, negative = inhibition: at 38.3 µM (top of the series) unless noted.
Sequence of UniProt P43220 (P43220 whole entry, looked up): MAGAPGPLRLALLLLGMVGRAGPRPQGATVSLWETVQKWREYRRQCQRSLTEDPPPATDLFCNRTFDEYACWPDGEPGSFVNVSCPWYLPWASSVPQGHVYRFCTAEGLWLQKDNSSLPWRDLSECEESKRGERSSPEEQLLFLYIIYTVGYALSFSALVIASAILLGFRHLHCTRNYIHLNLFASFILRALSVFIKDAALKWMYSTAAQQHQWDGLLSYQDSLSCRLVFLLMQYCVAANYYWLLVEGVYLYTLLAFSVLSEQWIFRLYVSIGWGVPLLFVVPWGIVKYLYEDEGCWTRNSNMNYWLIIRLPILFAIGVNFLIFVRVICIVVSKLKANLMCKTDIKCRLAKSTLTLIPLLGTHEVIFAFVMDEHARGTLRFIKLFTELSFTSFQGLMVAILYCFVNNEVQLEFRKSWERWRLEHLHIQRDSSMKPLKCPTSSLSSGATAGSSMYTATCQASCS
In short: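 Luminescence readout: a drop in cAMP-driven luciferase signal flags inverse agonism at a constitutively active GLP-1R stably expressed in HEK293. Compound exposure lasted 24 hr at 37 deg C, 5% CO2.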
% is scaled to controls: 0 for no effect and ±100 for the full control effect; potency is read from the fitted curve at half-maximal effect; tags tell the direction and shape of the fitted curve.
Also: nearly all actives have a fitted effect of over 55% in size.

Row | SMILES | Potency | activity change, negative = inhibition
1 | O=C(NCCc1c[nH]c2ccccc12)C(=O)NCC1OCCN1S(=O)(=O)c1cc(F)ccc1F (stereo unspecified) | inconclusive [inhibitor, single point] | –
2 | COc1ccccc1CN(C(=O)CNC(=O)c1ccco1)C(C(=O)NCC1CCCO1)c1ccccc1 (stereo unspecified) | inconclusive [inhibitor, full curve, poor fit] | –
3 | CN(C)c1ccc(/C=C/c2nnnn2-c2ccccc2)cc1 | inconclusive [inhibitor, single point] | –
4 | Cc1cc(C)c(S(=O)(=O)Nc2ccc3oc(C)c(C(=O)OC(C)C)c3c2)cc1C | inconclusive [inhibitor, single point] | –
5 | CCCCCCSc1ccc(-c2nc3cc(C)ccn3c2NC2CCCCC2)cc1 | inconclusive [inhibitor, single point] | –
6 | Cc1ccc(OCCC(=O)OCC(=O)N2c3ccccc3NC(=O)C2(C)C)cc1 | inconclusive [inhibitor, single point] | –
7 | C=CCn1c(-c2ccc(OC)c(OC)c2)cs/c1=N\c1ccccn1 | – | inactive: -1.81%
8 | CCCc1ccc(C2C3=C(CC(C)(C)CC3=O)NC3=C2C(=O)c2ccccc23)cc1 (stereo unspecified) | inconclusive [inhibitor, single point] | –
9 | O=C(c1ccncc1)N1N=C(C2CC2)CC1(O)C(F)(F)F (stereo unspecified) | inconclusive [inhibitor, partial curve, poor fit] | –
10 | CC(C)(C)c1csc(NC(=O)CS(=O)(=O)c2ccccc2)n1 | inconclusive [inhibitor, single point] | –
11 | COc1cc(NC(=O)c2ccc(COc3ccccc3Br)o2)cc(OC)c1OC | inconclusive [inhibitor, single point] | –
12 | CCCn1nc2cc(C(=O)N(CC)c3ccc(OC)cc3)ccc2c1OCC | inconclusive [inhibitor, partial curve, poor fit] | –
13 | Cc1ccccc1Cn1c(CN2CCC(C(=O)NCc3cccnc3)CC2)cc2ccccc21 | inconclusive [inhibitor, single point] | –
14 | C=CCOc1ccc(C2C(C(=O)c3cccs3)=C(O)C(=O)N2c2nnc(C)s2)cc1 (stereo unspecified) | – | inactive: 24.9%
15 | N=c1sccn1CC(=O)Nc1cccc(Oc2ccccc2)c1 | inconclusive [inhibitor, partial curve, poor fit] | –
16 | Cc1ccc(OCCOCCOc2cccc3cccnc23)c(Br)c1 | inconclusive [inhibitor, single point] | –
17 | O=S(=O)(c1ccc2c(c1)CCCN2)N1CCCC2CCCCC21 (stereo unspecified) | inconclusive [inhibitor, partial curve, poor fit] | –
18 | COc1ccc(Cl)cc1NC(=S)NCCc1c[nH]c2ccccc12 | inconclusive [inhibitor, single point] | –
19 | O=C(Cc1ccsc1)N1CCc2c([nH]c3ccccc23)C1c1ccccn1 (stereo unspecified) | inconclusive [inhibitor, partial curve, poor fit] | –
20 | CCc1ccc(NC(=S)NC(=O)c2c(-c3ccccc3Cl)noc2C)cc1 | active: 10 µM | –
21 | O=C(NCCCSc1ccccc1)c1cc(Cl)ccc1O | inconclusive [inhibitor, single point] | –

Row | SMILES | Potency | activity change, negative = inhibition
22 | CC1(C(=O)Nc2cccc(Oc3ccccc3)c2)CCN1Cc1cc2ccccc2o1 (stereo unspecified) | inconclusive [inhibitor, partial curve] | –
23 | Fc1ccc(-c2nnc(CN3CCN(c4ncc(C(F)(F)F)cc4Cl)CC3)o2)cc1 | inconclusive [inhibitor, partial curve, poor fit] | –
24 | CS(=O)(=O)N(CC(=O)Nc1ccccc1Sc1ccccc1)c1ccc(F)cc1 | inconclusive [inhibitor, partial curve, poor fit] | –
25 | CC1=C(C(=O)NCc2ccccc2Cl)C2(CCCCCC2)OC1=O | inconclusive [inhibitor, single point] | –
26 | CC(=O)N(c1ccc2oc(=O)sc2c1)S(=O)(=O)c1cccc2cccnc12 | inconclusive [inhibitor, partial curve, poor fit] | –
27 | Oc1c(/C=N/c2ncn[nH]2)ccc2ccccc12 | inconclusive [inhibitor, single point] | –
28 | Cc1occc1C(=O)N1CCCC(N2CCN(c3ccccc3F)CC2)C1 (stereo unspecified) | inconclusive [inhibitor, single point] | –
29 | C/C=C/C=C/C(=O)N1CC[C@]23c4ccccc4N[C@H]4N(C)c5cccc6c5[C@]42CCN([C@H]6C2OC2(C)C)[C@H]13 (stereo partly specified) | inconclusive [inhibitor, single point] | –
30 | O=C(Cn1ncc(Cl)c(Cl)c1=O)N1CCOCC1 | inconclusive [inhibitor, single point] | –
31 | O=C(Nc1nc(NC(=O)c2ccco2)n(-c2ccccc2)n1)c1ccccc1 | inconclusive [inhibitor, single point] | –
32 | CCn1c(/C=C/c2c[nH]c3ccccc23)nc2ccccc2c1=O | – | inactive: 0.626%
33 | CC(C)n1c(/C=C/c2ccccc2)nc2ccccc21 | inconclusive [inhibitor, partial curve, poor fit] | –
34 | c1cnc2ccc(C(c3nnnn3C3CCCCC3)N3CCCCC3)cc2c1 (stereo unspecified) | inconclusive [inhibitor, single point] | –
35 | O=C(/C=C/c1ccco1)Nc1ccccc1N1CCCCC1 | inconclusive [inhibitor, single point] | –
36 | CCc1nc2c(OCc3ccc(Cl)cc3)cccn2c1N(C)C(=O)c1ccco1 | active: 10 µM | –
37 | CCCN1CCN(CCCNC(=O)c2ccc3c(c2)sc2nc(-c4ccc(OC)cc4)cn23)CC1 | inconclusive [inhibitor, full curve, poor fit] | –
38 | CNc1ccc(Cl)cc1S(=O)(=O)c1ccccc1[N+](=O)[O-] | inconclusive [inhibitor, single point] | –
39 | COC(=O)[C@@]12C[C@@H](CC(=O)N3CCCCC3)C(=O)N(Cc3ccc4c(c3)OCO4)C1=CCC(C)(C)C2 | inconclusive [inhibitor, single point] | –
40 | N#Cc1nc(COc2ccc(Cl)cc2Cl)oc1N1CCN(c2ccccc2)CC1 | inconclusive [inhibitor, single point] | –
41 | Cc1c(C)n(Cc2ccccc2)c2ccc(C(=O)NCc3ccccc3F)cc12 | inconclusive [inhibitor, partial curve] | –
42 | O=C(Oc1cccc2c(OC(=O)N3CCCC3)cccc12)N1CCCC1 | inconclusive [inhibitor, full curve, poor fit] | –

Row | SMILES | Potency | activity change, negative = inhibition
43 | O=C(NCc1ccc2c(c1)OCO2)C1CCN(S(=O)(=O)c2ccc(F)cc2)CC1 | inconclusive [inhibitor, single point] | –
44 | CC[C@@]12C(=O)N(c3cccc(F)c3)C(=O)N1[C@H](c1cccc(C)c1)[C@@H]1C(=O)N(Cc3ccccc3)C(=O)[C@@H]12 | inconclusive [inhibitor, single point] | –
45 | CCCCNC(=O)C1(C)CCN1C(=O)c1cc2ccccc2s1 (stereo unspecified) | inconclusive [inhibitor, single point] | –
46 | COc1ccccc1NC(=O)NCCCN1CCN(c2ccc(F)cc2)CC1 | inconclusive [inhibitor, partial curve, poor fit] | –
47 | Cc1ccc(-c2nc3ccccc3[nH]2)cc1NC(=O)COc1ccccc1[N+](=O)[O-] | inconclusive [inhibitor, single point] | –
48 | COC(=O)C1=C(C)NC(C)=C(C(=O)OC)C1c1cn(-c2ccccc2)nc1-c1ccco1 | – | inactive: 0%
49 | CCC(C)c1ccc(NC(=S)NC(C)C2CCCO2)cc1 (stereo unspecified) | inconclusive [inhibitor, single point] | –
50 | CCC(NC(C)C)C(O)c1ccc(O)c2[nH]c(=O)ccc12 (stereo unspecified) | – | inactive: 40.4%
51 | COc1cccc(Cc2nc3ccccc3nc2SCC(=O)NCCc2ccccc2)c1 | inconclusive [inhibitor, partial curve, poor fit] | –
52 | CC(C)Cc1ccc(-c2cc3nc(NCCOc4ccccc4)ccn3n2)cc1 | inconclusive [inhibitor, full curve, poor fit] | –
53 | COc1ccc(NC(=O)c2ccc3c(c2)N(Cc2cccc(Cl)c2)C(=O)c2ccccc2S3=O)cc1Cl (stereo unspecified) | inconclusive [inhibitor, single point] | –
54 | O=C(c1ccc(Cl)cc1)N1CCN(c2ccc(N3CCOCC3)nn2)CC1 | – | inactive: -16.5%
55 | COc1ccccc1NC(=O)c1ccccc1Nc1ccccc1 | – | inconclusive: -86.3% [inhibitor]
56 | CSCCC(NS(=O)(=O)Cc1ccccc1)C(=O)NNc1ccccc1 (stereo unspecified) | inconclusive [inhibitor, partial curve, poor fit] | –
57 | COc1ccc(C2C=C(c3ccc(F)cc3)Nc3nc(-c4ccc(Cl)cc4)nn32)cc1 (stereo unspecified) | inconclusive [inhibitor, partial curve, poor fit] | –
58 | COc1cc(C)cc(C(=O)C=Cc2ccccc2)c1O | inconclusive [inhibitor, partial curve, poor fit] | –
59 | CCCC(=O)N(C1CC(C)C(C#N)(C#N)C1(C#N)C#N)N(C)C (stereo unspecified) | inconclusive [inhibitor, single point] | –
60 | O=S(=O)(c1ccccc1)N1CCCCC1CCc1ccccc1 (stereo unspecified) | inconclusive [inhibitor, single point] | –
61 | COc1ccc(NC(=S)N2CCCN(Cc3cc(C)ccc3C)C2)cc1 | inconclusive [inhibitor, single point] | –
